From PubChem BioAssay AID2112 (National Center for Advancing Translational Sciences (NCATS), 2009)
“And” between values parts separate entries of the source, which are not always exact repeats. Identical values can stand only once. In all, about 240,000 compounds went through this assay and about 15 (0.006%) were called active. The shares of active, inactive and inconclusive entries below differ from those in the screen. The call rests on the fitted dose curve; in most records, active means well fitted inhibition curve with a large enough effect; inconclusive means small, poorly fitted or top-dose-only effect, or effect the other way, or another doubt; inactive means no such curve, though single readings can be large or run the other way. No potency is given beside an inconclusive call; the fits are too rough.
Potency means the concentration at half of the fitted maximal effect; tags describe the fitted curve by direction and shape.
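Wherever activity change, negative = inhibition is given: 0% = enzyme with vehicle and -100% = no enzyme basal signal.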

Each compound was assayed against Lysosomal alpha-glucosidase (Homo sapiens) (UniProt P10253) (assay: qHTS Assay for Inhibitors and Activators of Human alpha-Glucosidase From Spleen Homogenate). Conditions: 4-MU-alpha-glucoside fluorescence; series mostly up to 79.9 µM; activity change, negative = inhibition: at the top concentration.
In short: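 Human spleen homogenate (1 ug) incubated with compounds and 1 mM 4-methylumbelliferyl-alpha-D-glucopyranoside in pH 5.0 citrate/phosphate buffer, 37 C, 40 min. Stopped at pH 10; 4-MU fluorescence (Ex 365/Em 440 nm); AC50 by Hill fit.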
For `Cc1cc(=O)[nH]c2cc(O)ccc12`, the Potency was inconclusive [activator, partial curve]. `CNC(=S)N1N=C(c2ccc(Br)cc2)CC1c1ccc(Br)cc1` (configuration not stated) was tested, and the Potency was inconclusive [inhibitor, full curve]. `CCOC(=O)c1c(N)n(CCOC(=O)c2cccs2)c2nc3ccccc3nc12` was tested, and the Potency was inconclusive [activator, partial curve]. For `O=C(Cc1ccccc1)NNc1ccc2ccccc2c1`, the “activity change, negative = inhibition” value was inactive: 0.284%. For `Cc1cc(C(=O)Cn2nnc3ccccc3c2=O)c(C)n1-c1ccccc1F`, the Potency was inconclusive [inhibitor, partial curve]. With `CC1(C)CC(=O)c2c(nc3ccccc3c2N)C1` the Potency was inconclusive [activator, single point]. With `Cc1ccc(S(=O)(=O)Nc2ccc(-c3nc4ccc(C)cc4s3)cc2)cc1` the Potency was inconclusive [activator, partial curve]. With `CCOc1ccccc1C1C(C(=O)OC)=CN(C)C=C1C(=O)OC` the Potency was inconclusive [activator, single point]. With `Oc1ccc(N=Cc2ccc(-c3cccs3)s2)cc1` the Potency was inconclusive [activator, single point]. With `O=P1(O)OP(=O)(O)OP(=O)(O)O1.[Al]` the “activity change, negative = inhibition” value was inactive: -0.149%. With `CN(C(=O)Nc1ccc(Cl)c(Cl)c1)c1ccccc1C(=O)O` the Potency was inconclusive [activator, single point]. `COc1ccc(CNC(=O)COc2ccc(F)cc2)cc1` was tested, and the Potency was inconclusive [inhibitor, single point]. In the case of `O=C(O)c1cccc(Cl)c1Cl`, the “activity change, negative = inhibition” value is reported as inactive: 1.88%. With `O=C1N2CCSC2=NC1(Nc1nccs1)C(F)(F)F` (configuration not stated) the Potency was inconclusive [inhibitor, full curve]. With `Cc1c2c(n3c(nc4ccccc43)c1C#N)N(CCCN(C)C)CC2` the Potency was inconclusive [activator, partial curve]. In the case of `O=C(Nc1ccc(Cl)c(C(F)(F)F)c1)NC1CC2CCCC(C1)N2Cc1ccccc1` (configuration not stated), the Potency is reported as inconclusive [inhibitor, single point]. `C#CC(C)OC(=O)Nc1cccc(Cl)c1` (configuration not stated) was tested, and the “activity change, negative = inhibition” value was inactive: 6.18%. With `O=C(Nc1ccccc1)N(Cc1ccc(Cl)cc1)CC(O)C(F)(F)F` (configuration not stated) the Potency was inconclusive [inhibitor, full curve, poor fit]. For `Cc1cc(=O)oc2cc(Oc3ccc([N+](=O)[O-])cc3[N+](=O)[O-])ccc12`, the Potency was inconclusive [activator, partial curve]. In the case of `Cc1ccc2nc(Cl)c(CN(Cc3cccs3)C(=O)C3CC3)cc2c1`, the Potency is reported as inconclusive [inhibitor, partial curve, poor fit]. For `CC(=O)[C@@H]1CC[C@H]2[C@@H]3CC[C@@H]4CC(=O)CC[C@]4(C)[C@H]3CC[C@]12C`, the “activity change, negative = inhibition” value was inactive: 2.91%. In the case of `COc1ccc(-c2cn3cccnc3n2)cc1`, the Potency is reported as inconclusive [activator, partial curve]. In the case of `N#CC1(C#N)C(c2ccccc2)OC23CCCCC2C1(C#N)C(=N)O3` (configuration not stated), the Potency is reported as inconclusive [activator, single point]. For `CCc1ccc(N=CC23c4ccccc4C(c4ccccc42)C2C(=O)N(c4ccc(OC)cc4)C(=O)C23)cc1` (configuration not stated), the Potency was inconclusive [inhibitor, partial curve]. `COCCNc1nc(-c2ccccc2Cl)nc2ccccc12` was tested, and the “activity change, negative = inhibition” value was inactive: -4.79%. `CCN(CC)C(=O)c1cc2c(=O)n3ccccc3nc2s1` was tested, and the Potency was inconclusive [activator, single point]. With `O=C1CCCC2=C1C(c1ccc(O)c(O)c1)c1c(ccc3ncccc13)N2` (configuration not stated) the “activity change, negative = inhibition” value was inactive: -9.29%. With `O=C(/C=C/c1ccc(O)cc1)c1cccs1` the Potency was inconclusive [activator, full curve, poor fit]. In the case of `CC(=O)Nc1ccc(S(=O)(=O)C(C#N)c2nc3ccccc3nc2NCCCO)cc1` (configuration not stated), the Potency is reported as inconclusive [activator, partial curve]. `CC(=O)Oc1cc2oc(=O)cc(C)c2cc1Cl` was tested, and the Potency was inconclusive [activator, partial curve]. `Cc1ccc2[nH]c3c(N4CCN(Cc5ccccc5)CC4)ncnc3c2c1` was tested, and the Potency was inconclusive [inhibitor, single point]. In the case of `Clc1ccc(Sc2cc(Cl)c(Cl)cc2Cl)cc1`, the “activity change, negative = inhibition” value is reported as inactive: -1.44%. For `COP(=O)(OC)c1nc(-c2cccc3ccccc23)oc1NCCc1ccccc1`, the Potency was inconclusive [inhibitor, single point]. For `COc1cc(OC)c(OC)cc1CN1CCCC(C(=O)N2CCCCC2)C1` (configuration not stated), the Potency was inconclusive [inhibitor, full curve, poor fit]. For `CCC(C)(C)n1nnnc1C(c1ccc(Cl)cc1)N1CCN(C)CC1` (configuration not stated), the Potency was inconclusive [inhibitor, partial curve, poor fit]. With `COc1ccc2[nH]c3c(=O)n(/N=C/[C@H]4C(C)C=C(C)CC4C)c(=O)[nH]c3c2c1` (some centres not stated) the Potency was inconclusive [activator, single point]. With `CCOC(=O)N/N=C1/C[C@@H](O)[C@@H](O)[C@@H]2[C@@H]3C(=O)N(C4CCCCC4)C(=O)[C@H]3CC[C@@H]12` the activity change, negative = inhibition was inactive: 1.62% [at 17.4 µM]. `COc1ccc2nc(-n3c(O)c(C4=c5ccccc5=NC4=O)[nH]c3=S)sc2c1` was tested, and the Potency was inconclusive [inhibitor, partial curve, poor fit]. `CCOc1ccccc1NC(=O)NC(C)c1ccncc1` (configuration not stated) was tested, and the Potency was inconclusive [inhibitor, single point]. With `Nc1nc(CSc2ccccn2)nc(Nc2ccccc2)n1` the Potency was inconclusive [inhibitor, partial curve]. For `C/C(CCN1CCCc2nc(C)c(C)cc21)=N\O[C@@H](C)c1cn([C@H](CO)Cc2ccccc2)nn1`, the activity change, negative = inhibition was inactive: 4.58% [at 17.4 µM] and inactive: -8.77% [at 17.4 µM]. For `CCOC(=O)c1cc2c(=O)n3ccccc3nc2n(Cc2ccco2)c1=NC(=O)c1ccc(OC)cc1`, the Potency was inconclusive [activator, single point].
